Results taken from the supplement of paper PMC11741623.
This is one part of the list. Interaction screen of human proteins with wild-type SARS-CoV-2 proteins by split-DHFR complementation in yeast, 1 µg/mL methotrexate. Value = fitness of the pair (three or more lineages) minus that of the viral protein without a human partner, on a scale set by negative (0) and fused positive (1) controls, mean of up to three cultures; higher = more likely to interact. Active = false discovery rate below 0.05 (one-sided t-test) in at least one culture. Nearly all pairs are not hits, and differences among them are mostly noise (correlation between cultures about 0.3); most hits were seen in one culture only. Human sequences are the Swiss-Prot entries looked up by gene name; the clone may be another isoform. NSP2 values were corrected by the authors for a growth advantage. Listed are human proteins with a hit and a random twelfth of the others.

B1: DGCR8, Q8WYQ5 (protein)
chain: METDESPSPLPCGPAGEAVMESRARPFQALPREQSPPPPLQTSSGAEVMDVGSGGDGQSELPAEDPFNFYGASLLSKGSFSKGRLLIDPNCSGHSPRTARHAPAVRKFSPDLKLLKDVKISVSFTESCRSKDRKVLYTGAERDVRAECGLLLSPVSGDVHACPFGGSVGDGVGIGGESADKKDEENELDQEKRVEYAVLDELEDFTDNLELDEEGAGGFTAKAIVQRDRVDEEALNFPYEDDFDNDVDALLEEGLCAPKKRRTEEKYGGDSDHPSDGETSVQPMMTKIKTVLKSRGRPPTEPLPDGWIMTFHNSGVPVYLHRESRVVTWSRPYFLGTGSIRKHDPPLSSIPCLHYKKMKDNEEREQSSDLTPSGDVSPVKPLSRSAELEFPLDEPDSMGADPGPPDEKDPLGAEAAPGALGQVKAKVEVCKDESVDLEEFRSYLEKRFDFEQVTVKKFRTWAERRQFNREMKRKQAESERPILPANQKLITLSVQDAPTKKEFVINPNGKSEVCILHEYMQRVLKVRPVYNFFECENPSEPFGASVTIDGVTYGSGTASSKKLAKNKAARATLEILIPDFVKQTSEEKPKDSEELEYFNHISIEDSRVYELTSKAGLLSPYQILHECLKRNHGMGDTSIKFEVVPGKNQKSEYVMACGKHTVRGWCKNKRVGKQLASQKILQLLHPHVKNWGSLLRMYGRESSKMVKQETSDKSVIELQQYAKKNKPNLHILSKLQEEMKRLAEEREETRKKPKMSIVASAQPGGEPLCTVDV
B2: SLC3A2, P08195 (protein)
chain: MELQPPEASIAVVSIPRQLPGSHSEAGVQGLSAGDDSELGSHCVAQTGLELLASGDPLPSASQNAEMIETGSDCVTQAGLQLLASSDPPALASKNAEVTGTMSQDTEVDMKEVELNELEPEKQPMNAASGAAMSLAGAEKNGLVKIKVAEDEAEAAAAAKFTGLSKEELLKVAGSPGWVRTRWALLLLFWLGWLGMLAGAVVIIVRAPRCRELPAQKWWHTGALYRIGDLQAFQGHGAGNLAGLKGRLDYLSSLKVKGLVLGPIHKNQKDDVAQTDLLQIDPNFGSKEDFDSLLQSAKKKSIRVILDLTPNYRGENSWFSTQVDTVATKVKDALEFWLQAGVDGFQVRDIENLKDASSFLAEWQNITKGFSEDRLLIAGTNSSDLQQILSLLESNKDLLLTSSYLSDSGSTGEHTKSLVTQYLNATGNRWCSWSLSQARLLTSFLPAQLLRLYQLMLFTLPGTPVFSYGDEIGLDAAALPGQPMEAPVMLWDESSFPDIPGAVSANMTVKGQSEDPGSLLSLFRRLSDQRSKERSLLHGDFHAFSAGPGLFSYIRHWDQNERFLVVLNFGDVGLSAGLQASDLPASASLPAKADLLLSTQPGREEGSPLELERLKLEPHEGLLLRFPYAA
B3: CYTIP, O60759 (protein)
chain: MSLQRLLQHSSNGNLADFCAGPAYSSYSTLTGSLTMDDNRRIQMLADTVATLPRGRKQLALTRSSSLSDFSWSQRKLVTVEKQDNETFGFEIQSYRPQNQNACSSEMFTLICKIQEDSPAHCAGLQAGDVLANINGVSTEGFTYKQVVDLIRSSGNLLTIETLNGTMILKRTELEAKLQVLKQTLKQKWVEYRSLQLQEHRLLHGDAANCPSLENMDLDELSLFGPLPGPGPALVDRNRLSSESSCKSWLSSMTMDSEDGYQTCVSEDSSRGAFSRQTSTDDECFIPKEGDDFLRRSSSRRNRSISNTSSGSMSPLWEGNLSSMFGTLPRKSRKGSVRKQLLKFIPGLHRAVEEEESRF

What follows are binders tested against SARS-CoV-2 E (assay: yeast fitness gain over the viral ORF with no human partner (scaled fitness); higher = more likely to interact).
Description: (§1)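 Split mouse DHFR complementation in pooled diploid yeast: human ORFeome clones carry one fragment and viral ORFs the other; barcoded lineages compete in 1 µg/mL methotrexate and fitness is read by barcode sequencing in up to three cultures.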
In the case of B1, the yeast fitness gain is reported as inactive: 0.0211.
In the case of B2, the yeast fitness gain is reported as inactive: -0.0127.
For B3, the yeast fitness gain was inactive: 0.0656.

Each binder was assayed against SARS-CoV-2 M in the same assay as above.
Description: as §1
B1 was tested, and the yeast fitness gain was inactive: -0.0551.
In the case of B2, the yeast fitness gain is reported as inactive: 0.0477.
With B3 the yeast fitness gain was inactive: 0.0659.

What follows are binders tested against SARS-CoV-2 N in the same assay as above.
Description: as §1
In the case of B1, the yeast fitness gain is reported as active: 0.518.
B2 was tested, and the yeast fitness gain was inactive: 0.116.

These binders were tested against SARS-CoV-2 NSP1 in the same assay as above.
Description: as §1
For B1, the yeast fitness gain was inactive: 0.0116.
For B2, the yeast fitness gain was inactive: -0.0606.
In the case of B3, the yeast fitness gain is reported as inactive: -0.0361.

What follows are binders tested against SARS-CoV-2 NSP10 in the same assay as above.
Description: as §1
For B1, the yeast fitness gain was inactive: 0.00162.
B2 was tested, and the yeast fitness gain was inactive: 0.0365.
B3 was tested, and the yeast fitness gain was inactive: 0.0436.

The binders below were run against SARS-CoV-2 NSP12 in the same assay as above.
Description: as §1
For B1, the yeast fitness gain was inactive: 0.0466.
In the case of B2, the yeast fitness gain is reported as inactive: 0.033.
For B3, the yeast fitness gain was inactive: 0.0129.

These binders were tested against SARS-CoV-2 NSP13 in the same assay as above.
Description: as §1
With B1 the yeast fitness gain was inactive: 0.0165.
B2 was tested, and the yeast fitness gain was inactive: -0.0401.
B3 was tested, and the yeast fitness gain was inactive: -0.0408.

The binders below were run against SARS-CoV-2 NSP14 in the same assay as above.
Description: as §1
In the case of B1, the yeast fitness gain is reported as inactive: 0.0423.
B2 was tested, and the yeast fitness gain was inactive: 0.0444.

The binders below were run against SARS-CoV-2 NSP15 in the same assay as above.
Description: as §1
B1 was tested, and the yeast fitness gain was inactive: 0.0377.
With B2 the yeast fitness gain was inactive: 0.00972.
For B3, the yeast fitness gain was inactive: 0.0146.

These binders were tested against SARS-CoV-2 NSP16 in the same assay as above.
Description: as §1
In the case of B1, the yeast fitness gain is reported as inactive: 0.015.
In the case of B2, the yeast fitness gain is reported as inactive: -0.0739.
In the case of B3, the yeast fitness gain is reported as inactive: -0.0177.

Each binder was assayed against SARS-CoV-2 NSP2 in the same assay as above.
Description: as §1
For B1, the yeast fitness gain was inactive: 0.0675.
In the case of B2, the yeast fitness gain is reported as inactive: -0.129.
With B3 the yeast fitness gain was inactive: -0.0764.

The binders below were run against SARS-CoV-2 NSP4 in the same assay as above.
Description: as §1
In the case of B1, the yeast fitness gain is reported as inactive: -0.0996.
With B2 the yeast fitness gain was inactive: 0.0218.

What follows are binders tested against SARS-CoV-2 NSP5 in the same assay as above.
Description: as §1
With B1 the yeast fitness gain was inactive: -0.0402.
With B2 the yeast fitness gain was inactive: -0.00171.
In the case of B3, the yeast fitness gain is reported as inactive: 0.00197.

Each binder was assayed against SARS-CoV-2 NSP6 in the same assay as above.
Description: as §1
With B1 the yeast fitness gain was inactive: 0.032.
For B2, the yeast fitness gain was inactive: -0.0102.
For B3, the yeast fitness gain was inactive: 0.0398.

The binders below were run against SARS-CoV-2 NSP7 in the same assay as above.
Description: as §1
With B1 the yeast fitness gain was inactive: 0.0113.
For B2, the yeast fitness gain was inactive: -0.0278.
With B3 the yeast fitness gain was inactive: -0.0645.

Each binder was assayed against SARS-CoV-2 NSP8 in the same assay as above.
Description: as §1
In the case of B1, the yeast fitness gain is reported as inactive: 0.00423.
For B2, the yeast fitness gain was inactive: 0.109.
For B3, the yeast fitness gain was inactive: 0.0361.

Each binder was assayed against SARS-CoV-2 NSP9 in the same assay as above.
Description: as §1
B1 was tested, and the yeast fitness gain was inactive: 0.0106.
In the case of B2, the yeast fitness gain is reported as inactive: -0.0279.
For B3, the yeast fitness gain was inactive: -0.0162.

These binders were tested against SARS-CoV-2 ORF10 in the same assay as above.
Description: as §1
In the case of B1, the yeast fitness gain is reported as inactive: 0.0472.
For B2, the yeast fitness gain was inactive: -0.036.
B3 was tested, and the yeast fitness gain was inactive: -0.0575.

Each binder was assayed against SARS-CoV-2 ORF3A in the same assay as above.
Description: as §1
In the case of B1, the yeast fitness gain is reported as inactive: 0.00458.
With B2 the yeast fitness gain was inactive: -0.0268.
B3 was tested, and the yeast fitness gain was inactive: -0.0584.

The binders below were run against SARS-CoV-2 ORF3B in the same assay as above.
Description: as §1
B1 was tested, and the yeast fitness gain was inactive: 0.0198.
In the case of B2, the yeast fitness gain is reported as inactive: -0.00506.
With B3 the yeast fitness gain was inactive: 0.00687.

Each binder was assayed against SARS-CoV-2 ORF6 in the same assay as above.
Description: as §1
B1 was tested, and the yeast fitness gain was inactive: -0.0153.
For B2, the yeast fitness gain was inactive: -0.0273.
With B3 the yeast fitness gain was inactive: -0.0133.

These binders were tested against SARS-CoV-2 ORF7A in the same assay as above.
Description: as §1
B1 was tested, and the yeast fitness gain was inactive: -0.0312.
With B2 the yeast fitness gain was inactive: 0.00363.
In the case of B3, the yeast fitness gain is reported as inactive: -0.0382.

These binders were tested against SARS-CoV-2 ORF7B in the same assay as above.
Description: as §1
With B1 the yeast fitness gain was inactive: -0.0529.
For B2, the yeast fitness gain was inactive: -0.00779.
For B3, the yeast fitness gain was inactive: -0.0137.

The binders below were run against SARS-CoV-2 ORF8 in the same assay as above.
Description: as §1
B1 was tested, and the yeast fitness gain was inactive: 0.00504.
B2 was tested, and the yeast fitness gain was inactive: -0.0099.
With B3 the yeast fitness gain was inactive: 0.00764.

These binders were tested against SARS-CoV-2 ORF9B in the same assay as above.
Description: as §1
B1 was tested, and the yeast fitness gain was inactive: 0.00679.
With B2 the yeast fitness gain was inactive: 0.0312.
For B3, the yeast fitness gain was inactive: -0.0495.

What follows are binders tested against SARS-CoV-2 ORF9Bwu (the 73-codon ORF) in the same assay as above.
Description: as §1
In the case of B1, the yeast fitness gain is reported as inactive: 0.0194.
B2 was tested, and the yeast fitness gain was inactive: 0.0178.
With B3 the yeast fitness gain was inactive: -0.181.

These binders were tested against SARS-CoV-2 S in the same assay as above.
Description: as §1
B1 was tested, and the yeast fitness gain was inactive: 0.0305.
In the case of B2, the yeast fitness gain is reported as inactive: 0.0687.
B3 was tested, and the yeast fitness gain was inactive: -0.0473.
